# Reference: the RNAGym collection of RNA variant scans (doi:10.7554/elife.90254)
# The source gives no read counts; variants with many changes may rest on few reads.
# B1: LINE1-mini (parent)
# chain: GGCAGAGCUCAACACAGCGUGGCAAAGUGGCUGUGGCUAGACUGCC
# Variants of: B1
# Test: self-cleavage, relative activity (ratio to wild type); higher = more cleavage; in vitro, sequencing; the parent is a self-cleaving ribozyme
row,Variant,self-cleavage
1,GGCAGAGAACAACACAGCGACGCAAAGUGGCUGUGGCUAGACUGCC,0.07
2,GGCAGAGCUCAACACAGCGUGCCAAUGUGGUUGUGGCUAGACUGCC,0.18
3,GGCACCGCUCAACACAGCGUUGUAAAGUGGCUGUGGCUAGACUGUC,0.69
4,GGCAGAGCUCAACACAGCGUUGCAAAGUGGCUGUGCCGAGACUGCC,0.06
5,GGCAGAGCUUAACACAGCGUGGCAAAGGGGCUGUUGCUAGACUGCC,0.13
6,GGCUGAGCUCAACACAGCGUUGCAAAGUGGCUGUGGCUAGUCUGCC,0.12
7,GGCAGAGCUCAACACAGCAUAGCAAAGUGGCUGUGGCUACACUGCC,0.2
8,GGCAGAGCUUAACACAGCGUGGCAAAGUGGCUGCGGCUAGACUACC,0.04
9,GGCCGAGCUCAACACAGCGUGGCAAAGUGGUUGUGGCUAGCUUGCC,0.06
10,GGCAGAGCUCAACGCAGCGUGGCAAAGUGGCUGGGUCUAGACUGCC,0.07
11,GGCAGGGCUCAACACAGCGGGGCAAAGUGGCUGUGGCUAGACUGGC,0.03
12,GGCAGACCUCAACACAGCGUGUCAAAGUGGCUGUUGCUAGAGUGCC,0.12
13,GGCAGAGCUCAACACAGCGUGGCAAAGGGGCUGUGGAAAGACUGCU,0.01
14,GGCAGGGUUCAACACAGCGUGGCAAGGUGGCUGUGGCUAGACUGCC,0.67
15,CGCAGAGCACAACACAGCGUGGCAAAGCGGCUGUGGCUAGAGUGAC,0.01
16,GGCAGAGCUCGACACAGCUUGUAAAAUUGGCUGUAGCUACACUGCC,0.01
17,GGCGGAGCUCAACACAGCGUUGCAAAGUGGCUGUGGCUACUCUGCC,0.09
18,GACAGAGCUCAACACAGCGUGGCAAAGUGGGUGUCGCUAGACUGCC,0.1
19,GGCAGAGCUCAAAACAGCGUGGCCAAGUGGCUGUGGCUAGAAUGCC,0.04

row,Variant,self-cleavage
1,GGCAGAGCUGAAAACAGCGUGGCUAAGUGGCUGUGGCUAGAAUGCC,0.02
2,GGCAGACCUCAACACACCGUGGCAUAGUGGCUGUGGCUAGACUGCC,0.06
3,GGCAGAGCUCAACACAGCGUGGCAAAGUGGCUGUGACUAAAGUGCC,0.67
4,GGCAGAGCUCAACACAGCGUGGCAAAGUGGCUGUCUAUAGACUGCC,0.11
5,GGAAGAGAUCAACACAGCGUGGCAAAGUGGCUUUGGCUAGACUGCC,0.32
6,GGCAGAGCUCAACACAGCGUUGCAUAAUGGCUGUGGCUAGACUGCC,0.79
7,GGCAGAGCUCAACACAGCGUGGCAAAGGUGCUGUGGCUAGAAUGCC,0.08
8,GGCAGAACUCAACACAGCUUGGCAAAGUGGCUGUGGCUAGACUCAC,0.03
9,GGCAGAGCUCAACACAGCUUGGCAACGUGGUUGUCGCUAGACUGCC,0.01
10,GGCAGAGCUCAACACACCGUGGCAAAGUGGGUGUGGCUAGACUGCG,0.28
11,GGGAGAGCUCAACGCAUCGUGGCAAAGUGGCUUUGGCUAGACUGCC,0.2
12,GGCAGAGCUCACCACAGCGUUGCAAAGUGGCUGUGGCUAGAUUGCC,0.11
13,GGCAGAGCUCAACACAGCCUGACAAAGUUGCUGUUGCUAGACUGCC,0.09
14,GGCAGAGCUUAACACAGCGUGGCAAAGUGGCUGUGGCUAGACAUGC,0.03
15,GGCAGAGCACAACAUAGCUUGGCAAAGAGGCUGUGGCUAGACUGCA,0.04
16,GGCAGGGCUCAACACAGAGUGGCAAAGUUGCUGUAGCUUGACUGUC,0.05
17,GGCAGGGCUCAACACAACGUGGCAAAGCGGCUGUGGCUCGACUGCC,0.02
18,GGCAGAGCUCAAAACAACGUGGCAAAGUGGCCGUGGCUAGACUCCC,0.02
19,GGCAGAGGUCAACAUAUCGUGGCAAAGUGGCGGUGGCUAAACUCCC,0.01

row,Variant,self-cleavage
1,GUAAGAGGUCAACACAGCGUGGCAAAGUGGCUGUAGAUAGACUGCC,0.21
2,GGCAGAUCUCAACACAGCGUCGCAAAGUGGCGGAGGCUAGACUGCC,0.03
3,GGCAGAACUCAACACAGCCUGGCAAAGUGGCUGUGGCUGGACUGCC,0.02
4,GGCAGAGCUCACCACAGCGUGGUACAGUGGCUGUGGCAAGACUGCA,0
5,GCCAGAGCCCAACACAGCGUGGCAAAGUGGCUGUGGCCAGAUUGCC,0
6,UGCAGAGCUCAAUACAGCGUGGCAGAGUGACUGUGGCUAAACUGCC,0.06
7,GGCAGAGCUCAACACAGCGUGGCAAAGUGGCUGAGCCUUGACUGCC,0.01
8,GGCAAAGCUCGACACACUGGGGCAAAGUGGCUGUGGCUAGACUGCC,0.03
9,GGCAAGGCUUAACACAGCGUGGCAAAGUGGCUGCGGCUAGACUGCC,0.02
10,GGCAGGGCUCACCACAGCGUUGCAAAGUGGCUGUGGCUAGACUGCC,0.03
11,GGCCGAGCACAACACAGCGUGGAAAAGUGGCUGUGGCUAGACUGCC,0.08
12,GGCAGAGAUCAACACAGCGUGGCAAAUCGGCUGUGGCUAGACUGCC,0.19
13,GGCAGAUGUCAACACAGUGUGGCAACGUGGCUGUGGCUAGACUGCC,0.03
14,GGCAGAGCUCAACACAGCGUGGUAAAGCGGCUGUUGCUAGACUGCC,0.11
15,GGCAGAGCGGAACACAGCGAGGCAAAGGGGCUGUGGCUAGACUGCC,0.01
16,GUCAGACCUCAACACAGCGGGGCAAAGUGGCCGUGGCAAGACUGGC,0.02
17,GGCAGAGCUCAACACAGAGUGGCAAAGUGGCUGUGGCUAGUCUGAC,0.04
18,GGCAGAGCUCCACACAGCGUCGCAAAGUGGAUGUGGCUAGACUGCC,0.02
